This is an account of results in PubChem BioAssay AID1508623 (National Center for Advancing Translational Sciences (NCATS), 2021).

About 450 (0.94%) of roughly 48,000 compounds were called active. Another 19% or so got no clear call; they are omitted. Calls come from the whole dose curve; as a rule, active = well fitted inhibition curve with a large enough effect; inconclusive = small, poorly fitted or top-dose-only effect; inactive = no such curve, though single readings can be large or run the other way. This is one part of the list.

The experiment can be described thus: Primary qHTS for Identification of Small Molecule Inhibitors of Huntingtin Promoter Activity. Note: nearly all actives have a fitted effect of over 50% in size. As to conditions: HEK293 HTT promoter firefly luciferase reporter (activity 0% = vehicle and -100% = no light), 24 h; series mostly up to 57.5 µM; activity change, negative = inhibition: at the top concentration. The gist of the method:
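Firefly luciferase signal from promoter-reporter HEK293 cells was scaled between vehicle (0%) and zero RLU (-100%). Compounds were tested at final concentrations of up to 57.5 uM over 24 h at 37 degrees C. PTC124 at 50 uM final served as control inhibitor.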
As to `CCOc1ccccc1CNS(=O)(=O)c1ccc2[nH]c(=O)ccc2c1`, the “activity change, negative = inhibition” value is inactive: -21.9%.
On to `CN(Cc1ccccc1)S(=O)(=O)c1cc(Br)cc2c1N(C(=O)C1CC1)CC2`, for which the “activity change, negative = inhibition” value was inactive: -31.8%.
For the compound `COc1ccc(NC(=O)CSc2nnc(NC(=O)Nc3ccc(OC)cc3)s2)cc1`, the “activity change, negative = inhibition” value is inactive: 38.6%.
`CCCCN(C)CCCNC(=O)c1cc(-c2ccc(Br)s2)nc2ccccc12`: the “activity change, negative = inhibition” value is inactive: -26.2%.
On to `Cc1cccc(NC(=O)CCCCCn2c(=O)[nH]c3ccsc3c2=O)c1`, for which the “activity change, negative = inhibition” value is inactive: -11.9%.
Then `CCOc1ccc(CCNC(=O)CCCn2nc(C)c3sc4ccccc4c3c2=O)cc1`, with inactive: 5.04%; and `Cc1cccc(N2CCN(C(=O)c3cn(CC(C)C)c(=O)c4c3c3ccccc3n4C)CC2)c1C`, with inactive: -16.2%.
Then `Cc1ccc(NS(=O)(=O)c2c(C)[nH]c(=O)[nH]c2=O)c(C)c1`, with inactive: -4.71%; and `COc1cccc(N2CC(NC(=O)CCCc3ccccc3)CC2=O)c1` (stereo not drawn), with inactive: -14%.
Consider `Cc1ccc(-c2noc(CNC(=O)c3ccc(Br)o3)n2)cc1`, for which the “activity change, negative = inhibition” value is inactive: -9.92%.
Take `CCOc1ccccc1CNC(=O)C1CCN(c2nn3cc(-c4ccc(F)cc4)nc3s2)CC1`: the “activity change, negative = inhibition” value was inactive: 16.9%.
On to `CCCCCCOc1ccc(C2C(=O)N(C3CCCCC3)CC(=O)N2CCC)cc1` (stereo not drawn), for which the “activity change, negative = inhibition” value was inactive: -28.6%.
As for `Cc1ccc(C(=O)Nc2cc3nn(-c4ccccc4)nc3cc2Cl)c(C)c1`, the “activity change, negative = inhibition” value was inactive: 0.317%.
Take `N#C/C(=C\c1ccc(Cl)cc1Cl)c1nc(-c2cccc(Cl)c2)cs1`: the “activity change, negative = inhibition” value is inactive: 5.95%.
For `CCOc1ccccc1N(CC(=O)NCCSc1ccccc1)S(=O)(=O)c1ccccc1`, the “activity change, negative = inhibition” value was inactive: -18.4%.
With `COc1ccccc1Cc1nc2ccccc2nc1SCC(=O)N(C)c1ccc(F)cc1`, the “activity change, negative = inhibition” value was inactive: -4.02%.
The figure for `Cc1cccc(N2CCN(C(=O)Nc3cn(CC(C)C)c(=O)c4ccccc34)CC2)c1C` is inactive: -22.8%; for `CCc1nn(CC(=O)NCCCN(CC(C)C)CC(C)C)c(=O)c2cc3sc(C)cc3n12` it is inactive: -0.605%; for `COc1ccccc1N1CCN(C(=O)Cn2cnc3onc(-c4ccc(F)cc4)c3c2=O)CC1` it is inactive: -18.6%.
On to `COc1ccc(Cn2c(=O)c3oc4ccccc4c3n(Cc3cccc(C(F)(F)F)c3)c2=O)cc1`, for which the “activity change, negative = inhibition” value was inactive: -19.5%.
For the compound `Cc1nn(-c2ccccc2)c2c1N(CC(=O)N1CCN(c3cccc(Cl)c3)CC1)C(=O)CS2`, the “activity change, negative = inhibition” value was inactive: -20.2%.
Take `COc1cccc(N2CC(NC(=O)c3ccco3)CC2=O)c1` (stereo not drawn): the “activity change, negative = inhibition” value is inactive: -17.5%.
With `CCOC(=O)c1ccccc1NC(=O)CSc1nc2cn(CC)nc2c(=O)n1Cc1ccc(Cl)cc1`, the “activity change, negative = inhibition” value is inactive: -6.81%.
On to `Cc1ccc2c(c1)c1c(c(=O)n(-c3cccc(Cl)c3)c(=O)n1CC(=O)Nc1c(C)cccc1C)n2C`, for which the “activity change, negative = inhibition” value was inactive: 5.76%.
In the case of `Cc1ccc(CN2CCSc3ccc(C(=O)N4CCN(c5ccccc5)CC4)cc32)cc1`, the “activity change, negative = inhibition” value is inactive: -10.3%.
Then `O=C(CC1N=C2c3ccccc3N=C(SCc3ccc(Cl)cc3)N2C1=O)NCc1cccs1` (stereo not drawn), with inactive: -5.87%; and `COc1ccc(N2CCN(C(=O)C3CCN(S(=O)(=O)c4cccs4)CC3)CC2)cc1`, with inactive: -22.2%.
For `CC(=O)O[C@]1(C(C)=O)CC[C@H]2[C@@H]3C=C(C)C4=CC(=O)CC[C@]4(C)[C@@H]3CC[C@@]21C`, the “activity change, negative = inhibition” value was inactive: -1.72%.
As to `O=c1c2cc3c(cc2n(Cc2ccc(Cl)cc2)c(=O)n1Cc1nc(-c2ccccc2)no1)OCO3`, the “activity change, negative = inhibition” value is inactive: -6.56%.
Regarding `Cc1ccc(-n2c(Cc3ccccc3)nnc2SCc2nc(-c3cccs3)no2)cc1`, the “activity change, negative = inhibition” value is inactive: -26%.
The figure for `Cc1ccc(O)c(C(CCN(C(C)C)C(C)C)c2ccccc2)c1` (stereo not drawn) is inactive: -0.423%.
For the compound `Cc1ccc(-c2noc(C(C)NS(=O)(=O)c3ccc(C)cc3)n2)cc1` (stereo not drawn), the “activity change, negative = inhibition” value is inactive: -29.7%.
On to `COc1ccc(CNC(=O)Cc2c(C)c3cc4c(C)coc4c(C)c3oc2=O)cc1`, for which the “activity change, negative = inhibition” value was inactive: -10.1%.
In the case of `Cc1ccc(C)c(CN2CCCN(Cc3ccc(F)cc3)S2(=O)=O)c1`, the “activity change, negative = inhibition” value is inactive: -14.4%.
For the compound `Cc1nc(-n2nc(C)c(Cc3ccccc3Cl)c2C)sc1C(=O)Nc1ccccc1F`, the “activity change, negative = inhibition” value was inactive: -6.93%.
On to `CCOC(=O)Cn1c(=O)n(CC2CCCO2)c2nc(-c3ccc(C)cc3)nc(C(N)=O)c21` (stereo not drawn), for which the “activity change, negative = inhibition” value is inactive: -12.2%.
With `CC(=O)c1ccc(S(=O)(=O)N2CCn3cccc3C2c2ccc(C)cc2)cc1` (stereo not drawn), the “activity change, negative = inhibition” value was inactive: -20.4%.
Then `Cc1ccc2nc3c(cc(C(=O)NCC4CCCO4)c(=N)n3C(C)C)c(=O)n2c1` (stereo not drawn), with inactive: -19.3%; and `COc1ccccc1NC(=O)C(=O)NCC(c1ccc2c(c1)OCO2)N1CCOCC1` (stereo not drawn), with inactive: -6.11%.
Take `COc1ccccc1/C=C/c1nc2ccccc2n1C(C)C`: the “activity change, negative = inhibition” value was inactive: 12.4%.
Then `COc1ccc(Cl)cc1NC(=O)Cc1ccc(NC(=O)N2CCCCc3ccccc32)cc1`, with inactive: -20.9%; and `CN1C(=O)CC[C@H]1c1cccnc1`, with inactive: 6.35%; and `CCn1c(C)c(C2N3CC4(C)CN2CC(C)(C3)C4=O)c2ccccc21` (stereo not drawn), with inactive: -6.95%.
Then `C/C(=N\O)[C@@H](C)NCC(C)(C)CN[C@H](C)/C(C)=N/O`, with inactive: -6.15%; and `CSc1ccc(CCNC(=O)c2cnc3c(C)cccn3c2=O)cc1`, with inactive: 5.15%; and `CC(=O)c1cccc(-n2c(=O)c3c4c(sc3n(CC(=O)c3ccccc3)c2=O)CN(C(C)=O)CC4)c1`, with inactive: -2.15%.
Take `CC(=O)c1cc2c(cc1N/C(=N/S(=O)(=O)c1ccc(Cl)cc1)c1ccc(F)cc1)OCO2`: the “activity change, negative = inhibition” value was inactive: -15.1%.
With `CCc1ccccc1NC(=O)Nc1c[nH]c(=O)[nH]c1=O`, the “activity change, negative = inhibition” value was inactive: 8.85%.
